# Laboratory results: the supplement of paper PMC8728848
# The other results are listed elsewhere or left out.
# B1: Cohesin-hDCIR (Homo sapiens) (protein)
# chain: LDDLDAVRIKVDTVNAKPGDTVRIPVRFSGIPSKGIANCDFVYSYDPNVLEIIEIEPGDIIVDPNPDKSFDTAVYPDRKIIVFLFAEDSGTGAYAITKDGVFATIVAKVKEGAPNGLSVIKFVEVGGFANNDLVEQKTQFFDGGANVGDTTEPATPTTPVTTPTTTDDLDAASQKYSQLLEKKTTKELVHTTLECVKKNMPVEETAWSCCPKNWKSFSSNCYFISTESASWQDSEKDCARMEAHLLVINTQEEQDFIFQNLQEESAYFVGLSDPEGQRHWQWVDQTPYNESSTFWHPREPSDPNERCVVLNFRKSPKRWGWNDVNCLGPQRSVCEMMKIHLHHHHHH
# How the values were obtained:
# [1] = target: Neu5Gc(a2-8)Neu5Gc(a2-6)Gal(b1-4)GlcNAc; test: glycan array binding signal (z-score within array); higher = stronger binding; conditions: glycan notation: IUPAC condensed, linker removed
# Outline: (§1)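 Glycan array binding is given as a within-array Z-score, which can be read as non-binding when negative. The arrays, 3228 of them, came from the Consortium for Functional Glycomics database and were retained only where the protein sequence was available. Z-scores were averaged across arrays of the same protein sequence at different concentrations or buffers and across linkers.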
# [2] = target: Neu5Gc(b2-6)Gal(b1-4)GlcNAc; test: as above; conditions: glycan notation: IUPAC condensed, linker removed
# Outline: as §1
binder,measurement,setting,value
B1,glycan array binding signal (z-score),[1],-0.56
same,glycan array binding signal (z-score),[2],-0.457
